Results reported in PubChem BioAssay AID504706 (National Center for Advancing Translational Sciences (NCATS), 2011).
The whole screen tested about 320,000 compounds, of which about 200 (0.062%) were called active. The inconclusive results got no clear call from the source; some entries with a clear call stand among them for comparison. Calls follow the shape of the dose curve; as a rule, active = well fitted activation curve with a large enough effect; inconclusive = small, poorly fitted or top-dose-only effect; inactive = no such curve, though single readings can be large or run the other way. Potencies of inconclusive entries are left out as doubtful fits.
Potency is read from the fitted curve at half-maximal effect; tags tell the direction and shape of the fitted curve.

Experiment: qHTS assay for re-activators of p53 using a Luc reporter; also: nearly all actives have a fitted effect of over 45% in size
Conditions: H1299 p53-A138V BP100-luciferase reporter, luminescence, 24 h; series mostly up to 92.2 µM
In short: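 H1299 (p53-null), stable ts p53-A138V + BP100-Luc; 1000 cells/well, Opti-MEM/10% FBS; cpd 4 pt, 1:5; 24 h, 37 deg C, 5% CO2; detection reagent 10 min RT; luminescence.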
For `CCC(COC(=O)c1cc(OC)c(OC)c(OC)c1)(c1ccccc1)N(C)C` (stereo unspecified), the Potency was “inactive”.
With `CCN1CCN(/C=N/c2nc(C)cs2)CC1` the Potency was inconclusive [activator, partial curve, poor fit].
In the case of `CC(C)OP(=O)(OC(C)C)C(O)c1ccc(Br)cc1` (stereo unspecified), the Potency was inconclusive [activator, single point].
In the case of `C=C(C)C(Cc1c(OC)ccc(C(=O)/C=C/c2ccc(O)cc2)c1O)OO` (stereo unspecified), the Potency was inconclusive [activator, partial curve, poor fit].
For `CC(C)n1c(N2CCN(S(=O)(=O)c3cccc([N+](=O)[O-])c3)CC2)nc2ccccc21`, the Potency was inconclusive [activator, single point].
For `CCOC(=O)C1(CCc2ccccc2)CCN(Cc2ccc(NC(C)=O)cc2)CC1`, the Potency was “inactive”.
With `O=C(C1CCN(S(=O)(=O)N2CCOCC2)CC1)N1CCC2(CC1)OCCO2` the Potency was inconclusive [activator, single point].
With `Cc1cc(N2CCOCC2)nc2ccc(NC(=O)CCC(=O)N3CCC4(CC3)OCCO4)cc12` the Potency was inconclusive [activator, partial curve, poor fit].
In the case of `COc1ccc(NC(=O)C2C3CCC(O3)C2C(=O)O)c(OC)c1` (stereo unspecified), the Potency was inconclusive [activator, partial curve, poor fit].
For `Cc1ccc(N2C(=O)NC(=O)/C(=C\c3cnc(-c4ccccc4)nc3)C2=O)cc1`, the Potency was inconclusive [activator, partial curve, poor fit].
For `O=C(Cc1ccccc1)N1CCN(Cc2ccccc2Cl)CC1`, the Potency was “inactive”.
For `CCCCn1c(=O)c(C(=O)NCc2ccncc2)c(O)c2ccccc21`, the Potency was “inactive”.
With `COc1ccc(OC)c(CC(=O)N(C)C2CCCN(Cc3ccccc3F)C2)c1` (stereo unspecified) the Potency was inconclusive [activator, single point].
In the case of `O=C(NCc1cn2ccccc2n1)c1ccccc1`, the Potency was inconclusive [activator, single point].
In the case of `Brc1ccc(Oc2ccc(Br)cc2Br)c(Br)c1`, the Potency was inconclusive [activator, single point].
With `O=C(NCC(c1cccnc1)N1CCOCC1)Oc1ccccc1` (stereo unspecified) the Potency was inconclusive [activator, partial curve, poor fit].
For `O=C(O)COc1ccc(/C=C2/SC(=S)N(Cc3ccccc3)C2=O)cc1`, the Potency was inconclusive [activator, single point].
For `CCOC(=O)c1ccc(N=C(CC)c2c(O)n(C)c(=O)n(C)c2=O)cc1`, the Potency was “inactive”.
In the case of `O=c1[nH]c(=S)[nH]c(O)c1N=Nc1ccc(SC(F)F)cc1`, the Potency was inconclusive [activator, partial curve, poor fit].
For `O=C(Nc1ccc(Cl)c(Cl)c1)c1ccco1`, the Potency was “inactive”.
With `CCc1ccc(N2C(=O)NC(=O)/C(=C\c3cccn3CCOc3ccc(C(C)C)cc3)C2=O)cc1` the Potency was inconclusive [activator, partial curve, poor fit].
With `O=c1[nH]c(=O)n(Cc2ccccc2)c(O)c1/C=C1\C=Nc2ccccc21` the Potency was inconclusive [activator, single point].
In the case of `CN(C)c1ccc(CCN2CCOCC2)cc1`, the Potency was inconclusive [activator, full curve].
In the case of `CN(C)C(=O)Oc1ccc(-c2cn3cc(Cl)ccc3n2)cc1`, the Potency was inconclusive [activator, full curve, poor fit].
For `Cc1cc(OCC(=O)Nc2cc(C)nn2-c2ccccn2)c2c3c(c(=O)oc2c1)CCC3`, the Potency was “inactive”.
With `CN1C(=O)/C(=C/c2ccc(N3CCCCCC3)o2)C(=O)NC1=S` the Potency was inconclusive [activator, full curve, poor fit].
In the case of `Cc1ccc(C(=O)N[C@@H](C)CN2C3=NC[C@H](Cc4ccccc4)N3C[C@H]2Cc2ccc(O)cc2)cc1Br`, the Potency was “inactive”.
With `CCCNC(=O)N1[C@H]2CC[C@@H]1C(C(=O)OC)=C(c1ccc(-c3ccccc3)c(F)c1)C2` the Potency was “inactive”.
For `CN1CCN(c2ccc([N+](=O)[O-])c3cccnc23)CC1`, the Potency was “inactive”.
With `COc1ccc2nc(NC3=NCCN3)sc2c1` the Potency was inconclusive [activator, partial curve, poor fit].
For `CCOc1ccccc1Oc1coc2cc(OC(=O)N(C)C)ccc2c1=O`, the Potency was inconclusive [activator, full curve, poor fit].
In the case of `COc1ccccc1N1CCN(Cc2ccc(Br)cc2)CC1`, the Potency was inconclusive [activator, single point].
For `COc1ccc(-n2nc(C(=O)NCC(=O)N3CCC4(CC3)OCCO4)c3ccccc3c2=O)cc1Cl`, the Potency was inconclusive [activator, full curve, poor fit].
With `CN1C(=O)C(=Cc2c(OCc3cnc(Cl)s3)ccc3ccccc23)C(=O)N(C)C1=O` the Potency was inconclusive [activator, single point].
For `CC/C(=N\NC(=O)c1ccccc1)c1c(O)n(C2CCCCC2)c(=O)[nH]c1=O`, the Potency was inconclusive [activator, single point].
In the case of `COC(=O)C1=C(c2ccc(C(C)=O)cc2)C[C@@H]2CC[C@H]1N2C(=O)N1CCC(O)(c2ccc(Cl)cc2)CC1`, the Potency was “inactive”.
In the case of `Nc1c2c(nc3sc4c(c13)CCCCC4)CCCC2`, the Potency was inconclusive [activator, partial curve].
In the case of `CN1C(=O)C(=Cc2ccc(OCC(=O)Nc3ccccc3)cc2)C(=O)N(C)C1=O`, the Potency was inconclusive [activator, single point].
With `Cc1ccccc1CCNCc1cc2cccc(C)c2[nH]c1=O` the Potency was inconclusive [activator, single point].
With `COc1ccc(F)cc1C(=O)C1CCCN(Cc2ccc(O)cc2)C1` (stereo unspecified) the Potency was inconclusive [activator, partial curve, poor fit].
In the case of `O=C(c1ccc(CNS(=O)(=O)c2ccccc2)cc1)N1CCC2(CC1)OCCO2`, the Potency was inconclusive [activator, partial curve, poor fit].
